ChEMBL document CHEMBL4888484, “Replenishing the malaria drug discovery pipeline: Screening and hit evaluation of the MMV Hit Generation Library 1 (HGL1) against asexual blood stage Plasmodium falciparum ,using a nano luciferase reporter read-out” (2022)
Hit rate of the full screen: of about 4,800 compounds, about 410 (8.5%) showed an effect of 50% or more. Some of the results follow.

Tested on: Plasmodium falciparum
Test: Confirmatory screen in NF54 pLDH assay, in single point, at 2uM, 72h
Type: functional, Erythrocyte
Conditions: timepoint 72 hour

Row | Compound | % Inhibition [%]
1 | C[C@H](C(=O)NCC1CCN(Cc2ccccc2F)CC1)C1CCOCC1 | 3
2 | Cc1noc(C)c1CN1C[C@@H]2Oc3cc(F)ccc3C(=O)N(C)[C@@H]2C1 | 97
3 | CCCNC(=O)c1c(NC(=O)c2ccc3c(c2)c(C)c(C)n3Cc2ccccc2)cnn1C | -21
4 | O=C(NCc1noc(Cc2ccccc2)n1)c1ccno1 | 5
5 | OC(CNC1CCCNc2ccccc21)c1ccc(Cl)s1 (stereo not drawn) | 51
6 | Cn1c(=O)c2nc(N3CCOCC3)[nH]c2n(-c2ccccc2)c1=O | -7
7 | Cc1ccc2c(c1)[C@@H](O)C[C@@H](C)N2C(=O)c1ccco1 | -4
8 | NC(=O)c1cccc(NC(=O)CC2=CCCCC2)n1 | -9
9 | CC(c1ccccc1)N1C(=O)c2ccccc2C1c1c[nH]c2ccccc12 (stereo not drawn) | 11
10 | O=C(c1cc(F)c[nH]1)N1CCN(C(=O)c2cc(F)c[nH]2)[C@@H]2CCCC[C@H]21 | 17
11 | CC(C)CNC(=O)N1CCCC[C@H]1c1noc(COc2ccc(F)cc2)n1 | -14
12 | O=C(NC1CCCC1)c1cc2ccccc2[nH]1 | -9
13 | Cc1cc(-c2cncc(CN3CCCCC3)c2)ccc1F | 8
14 | CN(c1nc2c(cnn2C)c(=O)[nH]1)C1CCCC1c1ccc(C(F)(F)F)cc1 (stereo not drawn) | 10
15 | Cc1nc2cc(F)ccc2cc1C(=O)N1CCN(S(=O)(=O)c2ccc(Br)cc2)CC1 | 6
16 | C[C@@H](CN)N(C)c1ccnc2cc(Br)cnc12 | 96
17 | CS(=O)(=O)Nc1nc2c(s1)CN(C(=O)c1ccc3c(c1)CCC=C3)CC2 | 10
18 | Cc1cccc(C(=O)Nc2c(C#N)c(-c3ccccc3)c(-c3ccccc3)n2Cc2ccccc2)c1 | 13
19 | COc1ccc(Cl)cc1S(=O)(=O)N(C)[C@H]1CCc2n[nH]c(=O)n2CC1 | -2
20 | COC(=O)c1c(NC(=O)[C@H]2CCCN(S(=O)(=O)c3cnn(C)c3C)C2)cnn1C | 8
21 | Cc1cc(C(=O)Nc2ccc3ccccc3c2)co1 | -3
22 | COC(=O)C(NCc1cnc(C)s1)C(C)O (stereo not drawn) | 6
23 | COCCN(Cc1c(-c2cccc(C)c2)noc1N1CCOCC1)C(=O)C1CCCC1 | -11
24 | O=S(=O)(Oc1ccc(Cc2ncc(C(F)(F)F)cc2Cl)cc1)c1ccccc1Cl | 11
25 | COc1ccccc1[C@H]1CC(O)=Nc2c1ncn2-c1cc(F)ccc1F | -7

Row | Compound | % Inhibition [%]
26 | COCCCn1c(COc2ccc(OC)cc2)n[nH]c1=O | 0
27 | CN(C(=O)CN(C)S(=O)(=O)c1cccnc1)C1CCCC1 | 7
28 | O=C(Nc1nccs1)c1ccc2c(c1)CC(c1ccccc1)(c1ccccc1)OC2=O | 3
29 | Cc1cc(C)c(NC(=O)CCn2c(=O)c(C)nc3cc(C)c(C)cc32)c(C)c1 | 11
30 | CC1(C)CC(C(=O)Oc2ccccc2)CC(C)(C)N1 | 3
31 | COc1ccc(N2CCN(c3nc(-c4ccccc4)cs3)CC2)cc1 | 0
32 | CC(C)CN(CC(C)(C)C)C(=O)c1cc[nH]n1 | -2
33 | COc1ccc(C(=O)N[C@@H](C(=O)Nc2ccccc2C)c2ccc(Cl)cc2)cc1 | 16
34 | CN1C(=O)[C@@H]2CCCCN2c2ccc(C(=O)N3CCN(c4cccc(Cl)c4)CC3)cc21 | 8
35 | Cc1cccc(CN2CCC[C@H](C(=O)c3ccc4c5c(cccc35)CC4)C2)n1 | 67
36 | O=C(Nc1cccc(C(F)(F)F)c1)S(=O)(=O)c1ccccc1 | -15
37 | CC(C)C[C@@H]1N[C@H](C(=O)NC2CCCC2)Cc2cn(C)c3cccc1c23 | 13
38 | Fc1ccc(COc2ccc3ccccc3c2CNc2ccc(Br)cc2)cc1 | 10
39 | Cc1cccc(Oc2nc3ccccc3n3c(=O)n(CC(=O)NCc4ccc(Cl)cc4)nc23)c1C | -8
40 | Cc1ccc(NCc2ccc(OCc3cccc4ccccc34)c(Br)c2)cc1 | 11
41 | O=C1[C@@H]2[C@H](Cc3c[nH]c4ccccc34)N[C@]3(C(=O)Nc4ccccc43)[C@@H]2C(=O)N1c1cccc(C(F)(F)F)c1 | 13
42 | c1cc([C@@H]2CCCCN2c2nc(C3CC3)ns2)n[nH]1 | 3
43 | Cc1ccc(C(=O)N2CCC(N3C(=O)[C@H]4CCCN4C3=O)CC2)cc1 | 3
44 | Fc1cccc(-n2nc(-c3ccccc3F)cc2-c2ccccc2F)c1 | -7
45 | CC(C(=O)Nc1nccs1)N1CCCC(c2ccn[nH]2)C1 (stereo not drawn) | 45
46 | CC(=O)N(Cc1ccc2c(c1)OCO2)c1cccc(-c2nc3ccccc3o2)c1 | -4
47 | CC(=O)c1cccc(NC(=O)Cc2c(C)nc3nc(C4CCCCC4)nn3c2C)c1 | 10
48 | CCCc1cc(NC(=O)N(CC)CCc2nccs2)n(C)n1 | 2
49 | O=C(CCS(=O)(=O)c1ccc2ccccc2c1)Nc1ncn(Cc2c(F)cccc2Cl)n1 | 4
50 | CCCC[C@H](Oc1ccc(C(C)(C)CC)cc1C(C)(C)CC)C(=O)Nc1ccc(NC(=O)C(F)(F)C(F)(F)C(F)(F)F)c(O)c1 | 4

Row | Compound | % Inhibition [%]
51 | O=C(O)CCNC(=O)c1ccc(NC(=O)c2cnc(-c3ccsc3)s2)cc1 | 7
52 | CC[C@H]1C[C@@H]1CNC(=O)c1cccc(NC(=O)c2ccco2)c1 | -2
53 | Cc1nnc([C@@H](NC(=O)Nc2ccccc2F)C(C)C)[nH]1 | 4
54 | CC(C)CC(=O)N=c1nc(S)ss1 | 10
55 | COc1ccc(Cl)cc1NC(=O)Cc1c(C)nc2nc(-c3ccccc3C)nn2c1C | 6
56 | COc1ccc(C(=O)CN2C=CCC=C2c2nc(-c3ccc(Cl)cc3)cs2)cc1 | 73
57 | CN1C(=O)N(c2cc(Cl)cc(Cl)c2)C(=O)[C@]12CN(c1ccc(C(=O)O)cn1)C[C@H]2c1ccc(C#N)cc1 | 15
58 | COc1ccc(C2=NC3(CCN(Cc4ccccc4)CC3)N[C@H](c3cc(Cl)ccc3O)C2)cc1 | 9
59 | C[C@H]1CCCN(c2nc(-c3ccccn3)nc3ccccc23)C1 | 98
60 | CC(C)N1CCO[C@H](C(=O)Nc2c[nH]nc2-c2ccccc2)C1 | -3
61 | CCNC(=O)NCCOC(=O)c1cccc(C)c1Cl | 13
62 | CCc1c([C@H](C)S(=O)(=O)c2ccccc2)[nH]c(=O)n1Cc1cccs1 | -7
63 | CCOC(=O)NC(c1ccccc1F)C1CCCCCCC1=O (stereo not drawn) | 2
64 | Cc1ccccc1Cn1nc2ccc(S(=O)(=O)N3CCOCC3)cn2c1=O | 16
65 | Cc1ccc(C)c(/C=C/c2nnc(C)o2)c1 | -6
66 | C[C@@H](Cn1c(=O)[nH]c2ccccc2c1=O)N(C)c1ccccc1 | 5
67 | CCOc1ccc(NC2=NC(=O)[C@@H](C#N)C3(CCN(Cc4ccccc4)CC3)N2)cc1 | 9
68 | Cc1c(CN(C)C(=O)Cn2ncc(Br)c2C)cnn1C | 4
69 | CC(C)(C)[C@@H](O)CCNC(=O)c1ccco1 | 9
70 | O[C@H](COCc1ccccc1)CN(Cc1c(-c2ccccc2F)noc1N1CCOCC1)C1CC1 | 8
71 | CCc1ccc(C(=O)N2CCCN(c3nc(C4CCOCC4)nc4c3cnn4-c3ccccc3)CC2)cc1 | -7
72 | O=C(Nc1cc(-c2onc3c2CCCC3)cc(C(F)(F)F)c1)c1cncc(Br)c1 | 95
73 | CC(=O)N(C)CC(=O)Nc1ccccc1NCC1CCCCC1 | 12
74 | O=C(Nc1ccc(OC(F)F)cc1)c1cc(C2CC2)nc2c1c(C1CC1)nn2-c1ccccc1 | -5
75 | CCn1cc([C@H](CC(=O)N2CCN(Cc3ccc4c(c3)OCO4)CC2)c2cccc(OC)c2)c2ccccc21 | 2

Row | Compound | % Inhibition [%]
76 | C#Cc1cc(C(F)(F)F)cc(C#N)c1N | 8
77 | C[C@H]1CN(C(=O)c2cc(Cl)cc(Br)c2F)CCS1(=O)=O | 8
78 | CC(=O)Nc1cc(C)c(S(=O)(=O)O)cc1C | 11
79 | O=C(C[C@H]1CCN(C(=O)C2CCC2)C1)NCc1ccccc1 | 14
80 | CN1CCC2(CC1)Nc1ccccc1-c1nc(-c3ccco3)nn12 | 6
81 | Cc1nc2n(Cc3ccc(Cl)cc3)c3ccccc3n2n1 | 5
82 | Cc1ccc([C@H]2C=NN(c3ccc(Br)cc3)C2=O)cc1 | 22
83 | CC(C)c1nc(CN(C)[C@@H](C)C(=O)Nc2nccs2)cs1 | 23
84 | O=S(=O)(c1ccco1)N1CC[C@H](Oc2ccccc2)C1 | 10
85 | O=C(c1cc(-c2ccccc2)n[nH]1)N1CCC(N2CCc3sccc3C2)CC1 | 27
86 | c1ccc(N2CCN(CCN[C@H]3CCc4cc5c(cc43)CCC5)CC2)cc1 | 9
87 | CCn1nccc1C(=O)N1CC[C@H](CC(=O)N(C)Cc2ccccc2)C1 | -2
88 | CC(C)OC(=O)N(CCOC(=O)Nc1cccc(Cl)c1)CCOC(=O)Nc1cccc(Cl)c1 | -20
89 | COc1ccc(N[C@@H](C)C(=O)Nc2nc(C)cs2)c(OC)c1 | 5
90 | CC[n+]1c(/C=C/N(C)c2ccccc2)oc2ccccc21 | 76
91 | CCOCCN(C)Cc1n[nH]c(C)c1C(=O)OCC | -2
92 | Cc1ccc(NC(=O)CN2N=C(C(=O)Nc3ccccc3)CCC2=O)cc1 | -10
93 | COc1ccccc1C(=O)Nc1ccc(N2CCCN(C)CC2)cc1C(=O)O | -6
94 | Nc1ccc(Cl)c(NC2=NN(c3c(Cl)cc(Cl)cc3Cl)C(=O)C2)c1 | 7
95 | O=C1c2[nH]nc(-c3cccs3)c2[C@@H](c2cccc(O)c2)N1c1nccs1 | 5
96 | CCOC(=O)c1cc(-c2ccccc2)nnc1Oc1ccccc1 | 13
97 | COc1ccc(C(=O)N(C(=O)c2ccc(OC)cc2)c2c3c(nc4ccccc24)CCCC3)cc1 | 61
98 | Cc1nn(C(F)F)c(C)c1S(=O)(=O)Nc1ncn(Cc2ccccc2Cl)n1 | 5
